# Screen size: about 390,000 compounds; about 4,700 (1.2%) were called active. The shares of active, inactive and inconclusive entries below differ from those in the screen. The call rests on the fitted dose curve; in most records, active means well fitted inhibition curve with a large enough effect; inconclusive means small, poorly fitted or top-dose-only effect, or another doubt; inactive means no such curve, though single readings can be large or run the other way. Potencies of inconclusive entries are doubtful fits and often do not repeat.
# Target: DNA polymerase eta (Homo sapiens) (UniProt Q9Y253)
# Test: qHTS for Inhibitors of Polymerase Eta
# Conditions: recombinant Pol eta, fluorescent DNA replication assay; series mostly up to 114 µM; activity change, negative = inhibition: at the top concentration
# How it was run: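 Fluorescent replication assay: 50 nM final substrate added after a 15 min room-temperature compound preincubation with 10 nM enzyme. Signal taken at 0 min and again at 10 min.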
# On the % scale 0 is the no-effect control and ±100 the full control effect; potency means the concentration at half of the fitted maximal effect; tags describe the fitted curve by direction and shape.
# UniProt Q9Y253, sequence (Q9Y253 whole entry, looked up): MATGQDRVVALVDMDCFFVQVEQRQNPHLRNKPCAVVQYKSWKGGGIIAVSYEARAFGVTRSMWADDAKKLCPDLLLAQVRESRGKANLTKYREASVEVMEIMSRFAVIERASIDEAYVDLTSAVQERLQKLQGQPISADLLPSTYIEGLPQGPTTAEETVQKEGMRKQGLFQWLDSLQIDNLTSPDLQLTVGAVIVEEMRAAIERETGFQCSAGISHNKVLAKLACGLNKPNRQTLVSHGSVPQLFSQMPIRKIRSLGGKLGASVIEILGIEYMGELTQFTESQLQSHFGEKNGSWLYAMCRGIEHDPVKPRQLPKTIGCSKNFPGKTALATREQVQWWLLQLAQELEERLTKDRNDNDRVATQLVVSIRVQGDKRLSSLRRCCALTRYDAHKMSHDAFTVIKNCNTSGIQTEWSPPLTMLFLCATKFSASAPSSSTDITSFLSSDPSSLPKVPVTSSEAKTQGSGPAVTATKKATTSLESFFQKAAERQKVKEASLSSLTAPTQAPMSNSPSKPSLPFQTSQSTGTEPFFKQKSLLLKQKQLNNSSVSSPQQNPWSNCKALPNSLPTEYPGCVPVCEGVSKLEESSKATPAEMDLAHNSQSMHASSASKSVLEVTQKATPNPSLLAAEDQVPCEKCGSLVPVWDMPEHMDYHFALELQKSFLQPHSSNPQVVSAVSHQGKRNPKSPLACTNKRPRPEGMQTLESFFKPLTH
Compound,Potency,"activity change, negative = inhibition"
COc1ccccc1NC(=O)Nc1nc(-c2cccnc2)nc2ccccc12,"inconclusive: 28.2 µM [inhibitor, single point]",
CC(=O)Nc1ccc(S(=O)(=O)Nc2ccc(S(=O)(=O)N3CCCC3)cc2)cc1,"inconclusive: 35.5 µM [inhibitor, partial curve, poor fit]",
O=C(c1ncn[nH]1)N1CCN(c2nc(-c3ccccc3)cs2)CC1,"inconclusive: 15.8 µM [inhibitor, full curve]",
O=C(NCCNC1CCCCC1)c1ccco1,"inconclusive: 100 µM [inhibitor, partial curve, poor fit]",
Cc1ccc(OCC(=O)N2C(C)CCCC2C)c([N+](=O)[O-])n1 (centres undefined),,inactive: -9.45%
O=C(O)COc1ccc(/C=C/C(=O)c2ccc3ccccc3c2)cc1,active: 25.1 µM,
Cn1c2ccccc2c2cc(/C=N/NC(=O)c3cc(O)ccc3O)ccc21,active: 10 µM,
O=C(Nc1cccc(N=Cc2cc(Br)cc(Br)c2O)c1)c1ccco1,"inconclusive: 89.1 µM [inhibitor, single point]",
COc1cc(/C=N/NC(=O)c2ccccc2O)ccc1OCC(=O)Nc1ccccc1,active: 50.1 µM,
O=[N+]([O-])c1cc(-c2csc(NCCc3nc4cc(C(F)(F)F)ccc4n3CCCO)n2)ccc1Cl,"inconclusive: 25.1 µM [inhibitor, full curve]",
Cc1cc(/C=C\c2ccc3cc(N(C)C)ccc3[n+]2C)c(C)n1-c1ccccc1,"inconclusive: 89.1 µM [inhibitor, single point]",
COC(=O)C1N2C(=O)[C@@H](NC(=O)COc3ccccc3)[C@H]2SC1(C)C (some centres undefined),,inactive: -6.14%
O=C1[C@H]2[C@@H](c3ccc(C(F)(F)F)cc3)N[C@]3(CCCN(Cc4ccccc4)C3=O)[C@H]2C(=O)N1Cc1ccccc1,"inconclusive: 35.5 µM [inhibitor, partial curve, poor fit]",
Cc1ccc(S(=O)(=O)/N=C2/NC(=O)/C(=C/c3cc([N+](=O)[O-])ccc3O)S2)cc1,active: 28.2 µM,
COc1cc(/C=C2/SC(=Nc3ccc(O)cc3)NC2=O)ccc1O,active: 31.6 µM,
CN(CC(=O)Nc1ccc(F)cc1F)S(=O)(=O)c1ccc(C(=O)N2CCOCC2)s1,,inactive: -3.55%
COc1ccc(-c2nc3ccccc3s2)cc1NC(=O)c1cc2ccccc2o1,,inactive: -15.4%
COc1ccc2[nH]c(C(=O)O)c(CCN3C(=O)c4cccc([N+](=O)[O-])c4C3=O)c2c1,"inconclusive: 39.8 µM [inhibitor, single point]",
COCc1cc(Sc2ccc(Cl)cc2)nc(-c2ccccc2)n1,"inconclusive: 79.4 µM [inhibitor, partial curve, poor fit]",
O=C(O)c1ccc(/C=C2\CCCc3c2nc2ccccc2c3C(=O)O)cc1,"inconclusive: 17.8 µM [inhibitor, full curve, poor fit]",
COc1cc(N2C(=O)C=CC2=O)ccc1N1C(=O)C=CC1=O,active: 25.1 µM,
CC(OC(=O)c1ccc(-n2cnnn2)cc1)C(=O)Nc1ccc(F)c(F)c1F (centres undefined),active: 56.2 µM,
Cc1c(OCC(=O)NC(Cc2c[nH]c3ccc(O)cc23)C(=O)O)ccc2c3c(c(=O)oc12)CCC3 (centres undefined),"inconclusive: 39.8 µM [inhibitor, partial curve]",

Compound,Potency,"activity change, negative = inhibition"
O=C(C(=Cc1ccccc1)CN1CCCCC1)c1ccccc1,"inconclusive: 35.5 µM [inhibitor, single point]",
CCC(=O)N1CCc2cc(Br)cc(S(=O)(=O)CCC(=O)NCCc3ccccc3Cl)c21,"inconclusive: 79.4 µM [inhibitor, partial curve]",
COCc1cc(N2CCCCC2)nc(-c2ccccc2)n1,,inactive: -7.66%
CC1=C(C(=O)OC2CCCC2)C(c2ccccc2Cl)CC(=O)N1 (centres undefined),,inactive: -16.8%
COc1ccc(CCNC(=O)COc2ccc(S(=O)(=O)NC3CCCCC3)cc2Cl)cc1,,inactive: -19.3%
CNC(=O)c1c[nH]n2c(=O)c(Cc3ccccc3F)c(C)nc12,,inactive: -6.92%
O=C(CCN1CCN(c2ccccn2)CC1)Nc1ccc(F)cc1,"inconclusive: 100 µM [inhibitor, partial curve, poor fit]",
Cc1ccc(C(=O)NC(Cc2c[nH]c3ccccc23)C(=O)O)o1 (centres undefined),"inconclusive: 31.6 µM [inhibitor, single point]",
COc1ccc(-c2nc3sc(CCNC(=O)C(=O)Nc4c(C)cccc4C)c(C)n3n2)cc1,,inactive: 8.5%
CCn1c(SCC(=O)NC2CCCc3ccccc32)nnc1-c1cccs1 (centres undefined),"inconclusive: 12.6 µM [inhibitor, partial curve]",
CCCCN(CCCC)CC(O)CN(c1cc([N+](=O)[O-])ccc1OC)S(=O)(=O)c1ccccc1 (centres undefined),"inconclusive: 89.1 µM [inhibitor, partial curve, poor fit]",
O=C(CCC(C(=O)O)N1C(=O)c2ccccc2C1=O)Nc1ccccc1 (centres undefined),"inconclusive: 89.1 µM [inhibitor, partial curve, poor fit]",
COc1ccc(C)cc1S(=O)(=O)N(C)CC(=O)NCc1ccco1,"inconclusive: 35.5 µM [inhibitor, single point]",
O=C1CC(c2ccco2)CC(O)=C1C=Nc1cc(Cl)cc(Cl)c1 (centres undefined),"inconclusive: 28.2 µM [inhibitor, partial curve, poor fit]",
COCCN(C(=O)CCC(=O)Nc1nccs1)C(C(=O)NC(C)(C)C)c1ccc(Cl)cc1 (centres undefined),"inconclusive: 89.1 µM [inhibitor, partial curve, poor fit]",
COc1ccc(N2CCc3c(C)nc4c(OC)cc(OC)cc4c32)c(OC)c1,,inactive: -7.24%
COc1ccc(Cn2c(=O)oc3ccccc32)cc1F,,inactive: -24.7%
CCN(c1ccc(NC(=O)CCc2nc3sc4c(c3c(=O)[nH]2)CCCC4)cc1)C(C)C,"inconclusive: 8.91 µM [inhibitor, partial curve]",
CC(=O)N1CCN(c2ccc(NCc3ccccc3)cc2)CC1,,inactive: -6.52%
O=c1c2[nH]c3ccccc3c2nc(SCc2cccc(F)c2)n1-c1ccccc1,,inactive: -9.72%
CCCn1c(N)c(N(CCOC)C(=O)c2cc(-c3ccco3)nc3ccccc23)c(=O)[nH]c1=O,"inconclusive: 28.2 µM [inhibitor, full curve]",
C=CCn1nnc2sc3c(c2c1=O)CCC(C)C3 (centres undefined),"inconclusive: 25.1 µM [inhibitor, single point]",
Oc1cccc(C=NCc2ccccc2)c1O,"inconclusive: 25.1 µM [inhibitor, partial curve, poor fit]",

Compound,Potency,"activity change, negative = inhibition"
COc1cc(NS(=O)(=O)c2cc(NC(C)=O)ccc2OC)c(OC)cc1NC(=O)c1ccccc1,active: 44.7 µM,
O=C(CCn1nnc2ccccc21)Nc1nnc(Cc2ccccc2)s1,"inconclusive: 25.1 µM [inhibitor, partial curve]",
Nc1nonc1C(=O)N/N=C/c1ccc(Br)o1,,inactive: -21.5%
CC(CNc1ccccc1O)C(=O)O (centres undefined),active: 25.1 µM,
COc1ccc(Br)cc1/C=N/NC(=O)c1ccc(COc2ccc3c(c2)CCC3)o1,,inactive: -20.5%
COc1cccc(-c2coc3c(C)c4oc(=O)c(CCC(=O)O)c(C)c4cc23)c1,active: 50.1 µM,
O=C1N=NC2=C1c1c3ccccc3c(O)n1CC2,,inactive: -9.85%
CCOc1ccc(C2c3[nH]c4ccccc4c3CCN2CCCn2cccn2)cc1 (centres undefined),"inconclusive: 89.1 µM [inhibitor, partial curve, poor fit]",
COc1ccc(-c2cnc(C)o2)cc1S(=O)(=O)Nc1ccc(C)c(N(C)C)c1,"inconclusive: 100 µM [inhibitor, partial curve, poor fit]",
O=C1C(C2=C(O)c3ccccc3C2=O)=Nc2ccccc21,active: 31.6 µM,
CCOC(=O)c1cc(-c2ccc(C)cc2)n(CCC(=O)Nc2ccc(OC)c(OC)c2)c1C,"inconclusive: 56.2 µM [inhibitor, partial curve, poor fit]",
O=C(O)CSc1cc(C(=O)c2ccccc2O)cn2c(=O)c3c4c(sc3nc12)CCCC4,"inconclusive: 6.31 µM [inhibitor, full curve]",
CCN1CCN(C(=O)c2ccc3c(c2)N(Cc2cccc(F)c2)C(=O)c2ccccc2S3)CC1,"inconclusive: 89.1 µM [inhibitor, single point]",
Cc1ccc(Cl)cc1N1CCN(C(=O)Cc2c(C(=O)O)[nH]c3ccc(Cl)cc23)CC1,"inconclusive: 89.1 µM [inhibitor, single point]",
CCC1=NN2C(=N)/C(=C\c3ccc(OCc4cc(=O)n5nc(CC)sc5n4)c(OC)c3)C(=O)N=C2S1,active: 8.91 µM,
CN1/C(=C\C(=O)COC(=O)c2ccc(O)c(O)c2)C(C)(C)c2ccccc21,"inconclusive: 31.6 µM [inhibitor, partial curve, poor fit]",
COc1cc(C2Nc3cccc4cccc(c34)N2)cc(OC)c1OC(C)=O,"inconclusive: 15.8 µM [inhibitor, partial curve, poor fit]",
CC1CCN(C(=O)CSc2nnc(-c3ccco3)n2N)CC1,,inactive: -18.2%
CC1CCN(C(=O)COC(=O)CCC(=O)c2cccs2)CC1,,inactive: -13.2%
O=C(Cc1ccsc1)NNC(=O)c1ccc(F)cc1,"inconclusive: 25.1 µM [inhibitor, single point]",
COc1ccc(/C=C2\SC(=S)N(CCC(=O)N(CCO)c3ccccc3)C2=O)cc1OC,"inconclusive: 56.2 µM [inhibitor, partial curve, poor fit]",
O=C(O)c1ccc(NS(=O)(=O)c2ccc3nnn(O)c3c2)cc1,"inconclusive: 20 µM [inhibitor, single point]",
Cc1nn2c3ccccc3nc2c2ccccc12,"inconclusive: 20 µM [inhibitor, partial curve, poor fit]",
